Results as given in PubChem BioAssay AID1346428 (National Center for Advancing Translational Sciences (NCATS), 2018).
Values joined by “and” are separate entries in the source; they are usually repeats but may differ in a detail not shown here. Equal values may be shown once. Screen size: about 48,000 compounds; about 1,200 (2.5%) were called active. Roughly 2% stayed inconclusive and do not appear here.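 Rule for the calls: active = activation of at least 60% and not above a set upper limit (about 1 call in 100 departs from these limits); inconclusive = activation of 40% to 60%, or above that upper limit; inactive = activation under 40%.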 The list shows a part of the results.

These molecules were tested against Probable G-protein coupled receptor 32 (Homo sapiens) (UniProt O75388) (assay: qHTS for Agonists of Human Resolvin D1 Receptor DRV1). Details: CHO-K1 GPR32 beta-arrestin PathHunter luminescence, 90 min; at 76.9 µM; stronger effect = higher value; zero percent set by DMSO-only wells.
Summary of the method: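 Engineered CHO-K1 line co-expressing GPR32-ProLink and EA-beta-arrestin. Compound treatment lasted 90 min at 37 °C. Luminescence was recorded after 1 h with substrate at ambient temperature, relative to DMSO basal wells.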
Note: 0% is about no effect.

Chain of UniProt O75388 (O75388 whole entry, looked up): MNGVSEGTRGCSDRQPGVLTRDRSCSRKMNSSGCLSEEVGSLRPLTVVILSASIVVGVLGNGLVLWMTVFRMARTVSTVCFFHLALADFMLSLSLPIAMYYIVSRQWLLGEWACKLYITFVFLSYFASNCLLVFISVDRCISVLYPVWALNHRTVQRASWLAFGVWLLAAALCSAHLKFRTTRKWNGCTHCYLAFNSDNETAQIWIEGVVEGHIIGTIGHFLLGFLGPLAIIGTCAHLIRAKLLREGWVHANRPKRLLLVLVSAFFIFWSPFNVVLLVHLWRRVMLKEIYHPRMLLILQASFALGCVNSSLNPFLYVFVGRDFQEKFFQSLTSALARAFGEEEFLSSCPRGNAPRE

activation, inactive:
O=c1c2cc3c(cc2nc2sc(Nc4ccc(F)c(Cl)c4)nn12)OCO3 -3.27%
Cc1nc(C)c(-c2ccc(SCC(=O)Nc3ccc(F)c(F)c3)nn2)s1 13.8%
Cc1ccc(NC(=O)c2cc(S(=O)(=O)N3CCCC(C)C3)cn2C)c(Br)c1 (centres undefined) -8.78%
COc1cc(/C=C(\C#N)c2nc3ccccc3n2C)cc(OC)c1OC -1.02%
Cn1c(=O)c2c(-c3cccc(Br)c3)n(CCO)cc2n(C)c1=O 3.75%
CCOc1ccc(CNC(=O)c2cc3ccccn3n2)cc1OC 1.05%
CCN1CCN(c2oc(/C=C/c3ccccc3OC)nc2C#N)CC1 -18.3%
COc1cccc(NS(=O)(=O)c2ccc3[nH]cc(C(=O)N4CCCCCC4)c(=O)c3c2)c1 -6.52%
Cc1ccc(-n2c(=O)c3ccc(C(=O)NCc4ccccc4Cl)cc3n(Cc3ccccc3F)c2=O)cc1 14.3%
CCOC(=O)c1c(-c2ccc(C)cc2)csc1NC(=O)c1nc(SCC)ncc1Cl 19.7%
CC1CCN(CCCNC(=O)c2cc(Sc3ccc(F)cc3)nc3ccccc23)CC1 -13.6%
CCc1ccc(CN(Cc2cn[nH]c2-c2ccc(OC)cc2)C(=O)Nc2ccc(C)c(F)c2)cc1 -21.4%
Nc1cccc(-c2cn3ccsc3n2)c1 6.7%
CSc1nnc(NC(=O)Cc2coc3cc(C)ccc23)s1 9.96%
CCOC(=O)c1c(-c2ccccc2)oc2ccc(NS(=O)(=O)c3ccc(C)cc3C)cc12 -17.5%
COc1ccc(Cn2c(=O)c3cccnc3n(Cc3cccc(OC)c3)c2=O)cc1 -10.6%
O=C(NC1CC(=O)N(c2cccc(F)c2)C1)C1CC1 (centres undefined) 5.29%
Cc1ccc(NC(=O)c2oc3ccccc3c2NC(=O)c2ccccc2C)cc1 -16.9%
COCCNC(=O)c1c(C)oc2nc(C)nc(N3CCOCC3)c12 -7.66%
CCOC(=O)c1cccc(NC(=O)c2ccc3c(Cl)c4c(nc3c2)CCC4)c1 -9.32%
CCOC(=O)c1c(NC(=O)c2ccccc2Cl)sc2c1CCCC2 -0.924%
COc1ccc(C2c3c(-c4c(C)cc(C)cc4O)n[nH]c3C(=O)N2Cc2ccco2)cc1 (centres undefined) 38.2%
COc1ccc2c(c1)c(CC(=O)O)c(C)n2C(=O)c1ccc(Cl)cc1 -9.88% and -18.2%

activation, active:
O=C(NCCCN1CCN(c2ccc(F)cc2)CC1)Nc1ccc(Cl)cc1 82.6%
